# Results taken from the supplement of paper PMC12217912.
# This is one part of the list. Sequences were assembled here from the parent chain. Values near 0.05 are background.
# B1: TEV protease; numbered along this chain (parent)
# chain: MGESLFKGPRDYNPISSSICHLTNESDGHTTSLYGIGFGPFIITNKHLFRRNNGTLVVQSLHGVFKVKDTTTLQQHLVDGRDMIIIRMPKDFPPFPQKLKFREPQREERICLVTTNFQTKSMSSMVSDTSCTFPSGDGIFWKHWIQTKDGQCGSPLVSTRDGFIVGIHSASNFTNTNNYFTSVPKNFMELLTNQEAQQWVSGWRLNADSVLWGGHKVFMVKPEEPFQPVKEATQL
# Variants of: B1
# Experiment: raw area under fraction-flipped curve 0-4 h after induction (AUC4h, not background-subtracted), DNA-recorder readout of cleavage of the substrate (dimensionless); higher = more cleavage of the substrate by the protease variant
# Settings: temperature: 34 °C; time window: 0-4 h after rhamnose induction
# 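Note: Bxb1 expression induced with 0.2% (w/v) L-rhamnose at OD600 near 0.5, cultures sampled hourly, flipped fraction per protease–substrate barcode pair counted by paired-end Illumina sequencing.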
Variant,area with substrate ENLYDQS,area with substrate ENLYHQS,area with substrate ENLYIQS,area with substrate ENLYNQS,area with substrate ENLYPQS,area with substrate ENLYRQS,area with substrate ENLYVQS,area with substrate ENLYEQS,area with substrate ENLYGQS,area with substrate ENLYKQS
E103P,0.0665,0.0674,0.132,0.0751,0.21,0.0642,0.104,–,–,–
E103I,0.0894,0.0641,0.13,–,0.0672,–,–,0.0752,0.0664,0.0586
E103S,0.0686,0.061,–,–,0.075,–,–,0.0348,0.07,–
R87D,0.0513,–,–,–,–,0.0392,–,–,–,0.0187
R87Q,0.0584,0.136,0.184,–,0.0781,0.0436,0.129,0.064,–,–
C131I,0.0538,0.0692,–,–,0.0695,0.0495,0.0885,0.07,0.0593,–
C131H,0.0387,0.0796,–,–,–,–,–,–,–,–
S171K,0.0648,0.0754,–,0.0581,–,–,0.0815,0.094,–,–
G153L,0.0164,–,–,0.0552,0.0586,–,0.0637,–,0.0484,0.0488
G153C,0.058,0.0517,0.0483,0.06,0.0559,0.0691,0.136,0.0546,0.0457,0.0429
R102E,0.0431,–,0.0511,–,0.0626,0.0447,–,0.0557,–,0.0475
Q118C,0.0628,0.0594,–,–,0.0692,–,–,0.061,–,–
Y179D,0.0441,0.0512,–,0.0422,–,–,0.0737,–,–,0.0148
T181H,0.0435,0.0167,0.0598,0.0575,0.0538,0.0556,0.0689,–,–,0.0529
T181I,0.0678,0.0525,0.112,–,–,–,–,0.0552,–,0.0128
T181E,0.0632,–,0.069,–,0.0668,–,–,0.0606,–,–
S124C,0.0611,0.0701,–,0.0713,0.0691,0.063,0.137,0.0447,0.0597,0.0684
S124Y,0.0479,0.0578,0.116,0.0781,–,0.0682,–,–,–,0.0655
I84V,0.0596,0.0478,0.102,0.0613,–,0.0549,0.0951,0.0577,–,0.0724
I84N,0.0653,0.0606,–,–,–,–,–,0.0625,–,0.0425

Variant,area with substrate ENLYDQS,area with substrate ENLYHQS,area with substrate ENLYIQS,area with substrate ENLYNQS,area with substrate ENLYPQS,area with substrate ENLYRQS,area with substrate ENLYVQS,area with substrate ENLYEQS,area with substrate ENLYGQS,area with substrate ENLYKQS
V113Y,0.0482,0.0599,0.111,0.0742,0.0693,–,–,0.0649,0.0411,–
D137A,0.0563,0.0761,0.0798,0.0708,–,–,0.14,0.0685,0.0754,0.0281
I85H,0.0811,0.0572,0.0842,0.0458,–,0.0491,0.0565,0.0634,–,–
S182F,0.0362,0.0485,0.0762,–,0.0565,–,–,0.0547,0.077,0.0676
S182H,0.0599,0.0507,0.0538,–,0.0615,0.0726,–,–,0.0576,0.0553
K98V,0.05,0.0692,0.11,–,0.0855,–,0.143,–,0.0736,0.0384
S121F,0.0593,0.0552,0.12,–,–,–,–,–,0.0814,0.0515
P89A,0.0637,–,–,0.0516,0.0681,0.0559,–,–,–,0.0472
P89C,0.0651,0.0661,–,0.0705,–,0.043,–,–,0.0638,–
K185N,0.0902,0.0625,0.132,0.0569,0.0864,0.0523,–,0.0533,0.0571,0.0545
F117P,0.0655,0.0731,0.122,0.0723,0.105,–,0.116,0.0562,0.0639,0.0662
F180S,0.0642,–,–,0.0549,–,–,–,0.0658,–,–
N172H,0.0337,–,–,0.0706,–,–,–,–,–,0.0585
N172V,0.0678,0.0536,–,0.0519,–,0.0608,0.0638,0.0464,0.0465,–
C111A,0.0538,0.0897,0.117,–,0.0561,–,–,0.0836,–,0.0382
D91T,0.0832,0.058,–,0.0643,0.0709,–,–,–,0.0651,0.0249
S154A,0.0659,0.0693,–,–,–,0.0589,–,–,0.062,0.0588
H76T,0.0591,0.0702,0.0658,0.044,0.0784,0.0617,–,0.0683,–,–
H76G,0.0462,–,0.136,–,–,0.0611,–,–,–,–
E189Y,0.0515,–,–,–,–,–,–,0.0642,–,–

# Same assay, conditions: temperature: 34 °C; time window: 0-4 h after rhamnose induction
Variant,area with substrate ENLYMQS,area with substrate ENLYQQS,area with substrate ENLYTQS,area with substrate ENLYWQS,area with substrate ENLYLQS,area with substrate ENLYSQS,area with substrate ENLYYQS
E103I,0.0791,0.0452,0.0875,0.0931,–,–,–
E103S,–,0.0572,0.0844,–,–,–,–
R87D,–,–,–,–,0.0455,0.0685,0.0483
C131I,–,0.0726,–,–,–,–,0.0495
C131H,–,–,–,0.0682,–,–,–
S171K,–,–,–,0.0512,–,–,–
G153L,0.0616,–,–,–,–,–,0.0478
G153C,–,–,0.0645,0.0444,–,0.04,–
R102E,–,–,0.104,0.064,–,–,–
Q118C,0.0715,0.0691,–,–,–,–,–
Y179D,0.0666,0.0591,–,–,–,–,–
T181H,–,–,–,–,–,0.0719,0.0691
T181E,0.0618,–,–,0.0628,–,–,–
S124C,–,–,0.0974,–,–,0.0658,0.0699
I84V,–,–,–,0.0833,–,–,–
I84N,–,0.0644,0.0543,–,–,0.0575,–
V113Y,0.0893,–,–,0.0735,–,0.0706,–

Variant,area with substrate ENLYMQS,area with substrate ENLYQQS,area with substrate ENLYTQS,area with substrate ENLYWQS,area with substrate ENLYLQS,area with substrate ENLYSQS,area with substrate ENLYYQS
D137A,–,0.0627,–,–,–,–,0.0786
I85H,0.0501,0.0496,–,0.102,–,0.0424,0.0487
S182F,–,–,–,–,–,0.0475,0.0574
S182H,0.0571,0.0687,0.0473,0.0738,0.0736,–,0.0571
S121F,0.0692,0.0523,–,0.083,–,–,0.0874
P89A,0.0636,–,0.068,–,–,0.0765,–
K185N,–,0.074,–,0.117,–,–,0.0809
F117P,–,–,–,0.0709,–,0.0707,–
F180S,0.0601,–,–,–,–,–,–
N172H,–,0.058,–,0.0586,–,–,–
N172V,–,0.062,–,–,–,–,0.0588
C111A,0.102,–,–,0.0666,–,–,0.0503
D91T,0.0861,0.0697,–,–,–,0.05,–
S154A,0.0824,–,0.0784,–,–,0.0528,0.063
H76T,–,–,0.0666,0.0633,–,0.0578,–
H76G,0.1,–,0.0836,0.0806,–,–,–
E189Y,0.0878,0.0617,–,–,–,–,–
